{"source": "PubChem BioAssay AID504832", "about": "(National Center for Advancing Translational Sciences (NCATS), 2011)", "note": "The campaign covered roughly 310,000 compounds. About 18,000 (5.8%) were called active. The inconclusive results got no clear call from the source; some entries with a clear call stand among them for comparison. Calls come from the whole dose curve; as a rule, active = well fitted inhibition curve with a large enough effect; inconclusive = small, poorly fitted or top-dose-only effect, or another doubt; inactive = no such curve, though single readings can be large or run the other way. No potency is given beside an inconclusive call; the fits are too rough. Potency is the fitted concentration of half-maximal effect; tags give direction and shape of the fitted curve."}
{"assay": "Primary qHTS for delayed death inhibitors of the malarial parasite plastid, 48 hour incubation", "settings": "P. falciparum luciferase growth in erythrocytes; series mostly up to 28.7 µM", "procedure,_shortened": "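Firefly luciferase activity from engineered P. falciparum reports growth; inhibitors lower the luminescent signal. Cultures contained 2% hematocrit erythrocytes at 0.1% final parasitemia.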"}
{"smiles": "COCCOc1ccc(C(F)(F)F)cc1NC(=O)COC(=O)c1c(C)noc1C", "Potency": "active: 9.28 µM"}
{"smiles": "COc1ccc(N2CC(C(=O)Nc3nnc(C4CCCCC4)s3)CC2=O)cc1", "note": "(stereo not given)", "Potency": "inconclusive [inhibitor, single point]"}
{"smiles": "CC[n+]1c(C)n(-c2ccccc2)c2ccc(NC(C)=O)cc21", "Potency": "active: 4.65 µM"}
{"smiles": "Cc1ccc(S(=O)(=O)c2nc(S(C)(=O)=O)sc2N2CCC(C)CC2)cc1", "Potency": "inconclusive [inhibitor, partial curve, poor fit]"}
{"smiles": "CC(=O)c1c(C)nn(CC(O)COc2ccc3ccccc3c2)c1C", "note": "(stereo not given)", "Potency": "inactive"}
{"smiles": "Cc1cc(C)cc(NC(=O)c2oc3ccccc3c2COc2ccccc2)c1", "Potency": "inconclusive [inhibitor, single point]"}
{"smiles": "O=C(CN1C(=O)c2cccc3cccc(c23)C1=O)N1CCCCC1", "Potency": "inactive"}
{"smiles": "Cc1ccc(C#CC(C)(O)C(C)(C)C)cn1", "note": "(stereo not given)", "Potency": "inconclusive [inhibitor, full curve, poor fit]"}
{"smiles": "O=C(C1CCN(S(=O)(=O)c2ccc(Cl)cc2)CC1)N1CCCC1", "Potency": "inconclusive [inhibitor, single point]"}
{"smiles": "O=C(Nc1nc2ccccc2s1)Nc1ccc([N+](=O)[O-])cc1Cl", "Potency": "inconclusive [inhibitor, full curve]"}
{"smiles": "CNCC(C)COc1ccccc1OCc1ccccc1", "note": "(stereo not given)", "Potency": "inconclusive [inhibitor, single point]"}
{"smiles": "O=C(Nc1ccc(Br)cc1)Nn1cnnc1", "Potency": "inactive"}
{"smiles": "OCCCNCc1ccc(-c2ccccc2)cc1", "Potency": "inconclusive [inhibitor, single point]"}
{"smiles": "O=C(O)c1cn[nH]c1-c1cccc([N+](=O)[O-])c1", "Potency": "inactive"}
{"smiles": "NCCCC[C@@H]1NC(=O)c2cc([N+](=O)[O-])cc(I)c2SC[C@@H](C(=O)NCC(N)=O)NC(=O)CNC1=O", "Potency": "inactive"}
{"smiles": "COc1cccc(C(=O)Nc2cccc(C(=O)NC3=NN(c4c(Cl)cc(Cl)cc4Cl)C(=O)C3)c2)c1", "Potency": "inconclusive [inhibitor, single point]"}
{"smiles": "COc1ccc(OC)c(S(=O)(=O)N2CCC(c3nc4ccccc4[nH]3)CC2)c1", "Potency": "inconclusive [inhibitor, partial curve]"}
{"smiles": "Cc1cc(C)cc(NS(=O)(=O)c2c(C(=O)N3CCOCC3)c(C)n(C)c2C)c1", "Potency": "inconclusive [inhibitor, partial curve]"}
{"smiles": "CN(c1ccc(OCC(=O)OCC(=O)NCc2ccco2)cc1)S(=O)(=O)c1ccc2ccccc2c1", "Potency": "inactive"}
{"smiles": "COc1ccc(N2CCN(C(=O)Cc3csc(NC(=O)Nc4ccccc4OC)n3)CC2)cc1", "Potency": "active: 7.38 µM"}
{"smiles": "CC(NC(=O)c1ccc(N(C)C)cc1)c1ccc(F)cc1", "note": "(stereo not given)", "Potency": "inconclusive [inhibitor, single point]"}
{"smiles": "O=C(CN1C2CCCC1CC(NC(=O)C1CCCCC1)C2)NCc1ccc(F)cc1", "note": "(stereo not given)", "Potency": "inconclusive [inhibitor, partial curve]"}
{"smiles": "Cc1ccc(C2Nc3cccc4cccc(c34)N2)s1", "Potency": "inconclusive [inhibitor, partial curve, poor fit]"}
{"smiles": "Cc1cc(C)c2cc(CN(Cc3ccc4c(c3)OCO4)Cc3nnnn3Cc3ccco3)c(=O)[nH]c2c1", "Potency": "inconclusive [inhibitor, single point]"}
{"smiles": "Cc1ccc(N(C)S(=O)(=O)c2cccc(C(=O)NCC(c3cccs3)N3CCOCC3)c2)cc1", "note": "(stereo not given)", "Potency": "active: 11.7 µM"}
{"smiles": "COC(=O)c1cn(-c2ccc(F)cc2)c(=O)c2ccccc12", "Potency": "inconclusive [inhibitor, single point]"}
{"smiles": "CCN(CC)S(=O)(=O)c1ccc(/C=C/C(=O)Nc2ccc(F)c(F)c2F)cc1", "Potency": "active: 9.28 µM"}
{"smiles": "CCOC(=O)C1(CCc2ccccc2)CCN(C(=O)C(C)n2cncn2)CC1", "note": "(stereo not given)", "Potency": "inactive"}
{"smiles": "CN1CCN(C2=CC(=O)OC23CCCCC3)CC1", "Potency": "inactive"}
{"smiles": "CCCN1CCC(NC(=O)Nc2ccc(Br)cc2)CC1", "Potency": "inconclusive [inhibitor, single point]"}
{"smiles": "O=C(O)Cc1ccc(-n2cccc2)cc1", "Potency": "inactive"}
{"smiles": "COc1ccccc1OCC(=O)NNC(=O)C1CCN(c2ncnc3sc(C)c(C)c23)CC1", "Potency": "inconclusive [inhibitor, partial curve, poor fit]"}
{"smiles": "Fc1ccc(C(OCCN2CCCC2)c2ccc(Br)cc2)cc1", "note": "(stereo not given)", "Potency": "inconclusive [inhibitor, single point]"}
{"smiles": "CCc1nnc(SCC(=O)N2CCCC(N3CCN(c4ccccc4C)CC3)C2)o1", "note": "(stereo not given)", "Potency": "inconclusive [inhibitor, partial curve]"}
{"smiles": "CCCCCCOC(=O)C(C#N)c1nc2ccccc2nc1N1CCN(CC)CC1", "note": "(stereo not given)", "Potency": "inconclusive [inhibitor, single point]"}
{"smiles": "COc1ccc(CCC(C)Nc2ccc(F)cc2)cc1", "note": "(stereo not given)", "Potency": "inconclusive [inhibitor, partial curve, poor fit]"}
{"smiles": "COc1ccc([C@H]2[C@@H]3C=CCC[C@@]3(C)C(=O)N2Cc2ccccc2)cc1Cl", "Potency": "inconclusive [inhibitor, single point]"}
{"smiles": "Nc1c2c(nc3sc4c(c13)CCCC4)CCCC2", "Potency": "inconclusive [inhibitor, single point]"}
{"smiles": "C/C(O)=C(/C#N)c1nc2ccccc2[nH]1", "Potency": "inactive"}
{"smiles": "CCCNC(=O)c1ccc(N2CCC3(CC2)CC(c2cccc(Br)c2)=NO3)c(NC(=O)c2cccc(C)c2)c1", "Potency": "inconclusive [inhibitor, partial curve, poor fit]"}
{"smiles": "COc1ccc(NC(=S)Nc2ccc(OCc3ccccc3)cc2)cc1OC", "Potency": "inactive"}
{"smiles": "COc1ccc(/C(C)=N/NC(=O)c2ccccc2N)cc1", "Potency": "inconclusive [inhibitor, single point]"}
{"smiles": "COc1ccc(CC(=O)Nc2ccc(S(=O)(=O)N3CCCCC3)cc2)cc1OC", "Potency": "inactive"}
{"smiles": "Cc1ccc(C[C@H](C(=O)O)N2C(=O)c3ccc(C(=O)O)cc3C2=O)cc1", "Potency": "inactive"}
{"smiles": "COC(=O)c1ccc(N2C(=O)CC(Sc3n[nH]c(C)n3)C2=O)cc1", "note": "(stereo not given)", "Potency": "inactive"}
{"smiles": "COCCNc1nc2c(c(=O)[nH]c(=O)n2C)n1CCCc1ccccc1", "Potency": "inactive"}
{"smiles": "COc1ccc(N/N=C(/N=Nc2nc(C)cc(=O)[nH]2)c2ccccc2)cc1", "Potency": "active: 1.65 µM"}
{"smiles": "COc1cccc(C2c3[nH]c4ccccc4c3C[C@H]3C(=O)N(CCCCCO)CC(=O)N23)c1", "note": "(stereo not given in full)", "Potency": "inconclusive [inhibitor, single point]"}
{"smiles": "CCn1c(SCc2ccc(Cl)cc2)nc2nc3c(cc2c1=O)CCCC3", "Potency": "inconclusive [inhibitor, single point]"}
{"smiles": "O=C(CN1CCN(C(=S)NC2CCCC2)CC1)Nc1ccc(Oc2ccccc2)cc1", "Potency": "inconclusive [inhibitor, partial curve, poor fit]"}
{"smiles": "CCCCCCOC(=O)CCn1[nH]c(=O)c2ccccc2c1=O", "Potency": "inconclusive [inhibitor, single point]"}
{"smiles": "Cc1[nH]c(C)c(S(=O)(=O)N2CCCCC2)c1C(=O)N1CCCCC1", "Potency": "inactive"}
{"smiles": "CCN(C(=O)c1ccc2c(=O)n3c(nc2c1)CCCCC3)c1ccc(F)cc1", "Potency": "inactive"}
{"smiles": "O=S(=O)(Cc1cc(NCc2ccccc2)nc(-c2ccccn2)n1)c1ccccc1", "Potency": "inconclusive [inhibitor, partial curve]"}
{"smiles": "O=C(CSc1nc(N2CCCCC2)nc(N2CCCCC2)n1)N1CCN(c2ccccc2)CC1", "Potency": "inconclusive [inhibitor, single point]"}
{"smiles": "COC(=O)c1ccc(C2N=C(c3cccs3)CC(c3ccccc3O)N2)cc1", "note": "(stereo not given)", "Potency": "inconclusive [inhibitor, single point]"}
{"smiles": "N#Cc1cc2c(nc1SCC(=O)Nc1cc(Cl)ccc1Cl)C1CCN2CC1", "Potency": "inconclusive [inhibitor, single point]"}
{"smiles": "O=C(Nc1cccn(Cc2c(Cl)cccc2Cl)c1=O)c1ccc(Cl)cc1", "Potency": "inconclusive [inhibitor, partial curve, poor fit]"}
{"smiles": "Cc1cc(C)n(CC2CC(=O)N(c3ccc(Cl)cc3)C2=O)n1", "note": "(stereo not given)", "Potency": "inconclusive [inhibitor, single point]"}
{"smiles": "ClC(=C\\c1ccccc1)/C=N/N1CCN(c2ccccn2)CC1", "Potency": "inactive"}
{"smiles": "Nc1c(S(=O)(=O)c2cccc(Cl)c2)c2nc3ccccc3nc2n1/N=C/c1ccc(O)c(O)c1", "Potency": "active: 7.38 µM"}
{"smiles": "CC(=O)c1ccc(NC(=O)N2CCN(c3ccc(C)cc3)C(C)C2)cc1", "note": "(stereo not given)", "Potency": "inconclusive [inhibitor, full curve]"}
{"smiles": "CCn1c(-c2ccccc2)c(C(=O)CC#N)c2ccccc21", "Potency": "inconclusive [inhibitor, single point]"}
{"smiles": "CC[C@H](C)[C@H](NC(N)=O)C(=O)NCCc1ccc(OC)c(OC)c1", "Potency": "inactive"}
{"smiles": "C=CCn1c(=O)c2ccc(C(=O)NCc3ccccc3)cc2n(Cc2cccc(Cl)c2)c1=O", "Potency": "inconclusive [inhibitor, single point]"}
{"smiles": "Oc1ccc(Br)cc1-c1nc2cnccn2c1NC1CCCCC1", "Potency": "active: 3.29 µM"}
{"smiles": "c1ccc2[nH]c(CCCc3nc4ccccc4[nH]3)nc2c1", "Potency": "inconclusive [inhibitor, full curve, poor fit]"}
{"smiles": "Cc1cccc2cc3c(N)c(C#N)sc3nc12", "Potency": "inconclusive [inhibitor, full curve, poor fit]"}
{"smiles": "OCC1(CCc2ccccc2)CCCN(C/C=C/c2ccccc2)C1", "note": "(stereo not given)", "Potency": "inconclusive [inhibitor, single point]"}
{"smiles": "COc1ccc(C(=O)Nc2cc3c(cc2C#N)OCO3)cc1S(=O)(=O)N1CCN(C)CC1", "Potency": "inactive"}
